Source: the RNAGym collection of RNA variant scans (doi:10.1073/pnas.2313332121)
This sample is rich in variants without activity.

B1: TPR 5TU (parent)
chain: GGAUCUUCUCGAUCUAACAAAAAAGACAAAUCUGCCACAAAGCUUGAGAGCAUCUUCGGAUGCAGAGGCGGCAGCCUUCGGUGGCGCGAUAGCGCCAACGUUCUCAACUAUGACACGCAAAACGCGUGCUCCGUUGAAUGGAGUUUAUCAUG

Variants of: B1
Assay: polymerase ribozyme fitness, log enrichment relative to wild type (log ratio); higher = more active; in vitro selection for triplet polymerase activity
Procedure, shortened: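 Each subunit of a heterodimeric triplet polymerase ribozyme was mutagenized into a library by PCR, transcribed, and subjected to one round of in vitro selection, run in triplicate. Libraries were annealed with a biotinylated primer, the partner subunit and triplets, incubated frozen at −7 °C, and extended constructs were gel-excised, captured on streptavidin beads and recovered by RT-PCR. Input and output libraries were sequenced on Illumina, keeping genotypes with ≥10 input reads and ≥1 read per output. Fitness is log base 2 of genotype enrichment divided by wild-type enrichment, from inverse-variance-weighted replicate averages.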

Variant | polymerase ribozyme fitness (log ratio)
GGAUCUUCUCGAUCUAACAAAAAAGACAAAUCUGCCACAAAGCUUGAGAGCAUCUUCGGAUGCAGAGGCGGCAGCCUUCGGUGGCGCGAUAGCACCAACGUUCUCAACUAUGACAAGCAAAACGCGUGCUCCGUUGAAUGGAGUUUAGCAUG [G94A C116A U148G] | ≤ -4.2
GGAUCUUCUCGAUCUAACAAAAAAGACAAAUCUGCCACAAAGCUUGAGAGCAUCUUCGGAUGCAGAGGCGGCAGCCUUCGGUGGCGCGAUAGUGCCAAGGUUCUCAACUAUGACACGCAAAACGCGUGCUCCGUUAAAUGGAGUGUAUCAUG [C93U C99G G136A U145G] | -1.59
GGAUCUUCUCGAUCUAACAAAAAAGACAAAUCUGCCACAAAGCUUGAGAGCAUCUUCGGAUGCAGAGGCGGCAGCCUUCGGUGGCGCGAUAGUGCCAACGUUAUCAAGUAUGACACGCAAAACGCGUGCUCCGUUGAAUGGAGUUUAUCAUG [C93U C103A C108G] | ≤ -4.2
GGAUCUUCUCGAUCUAACAAAAAAGACAAAUCUGCCACAAAGCUUGAGAGCAUCUUCGGAUGCAGAGGCGGCAGCCUUCGGUGGCGCGAUAGUGCCAACGUUCUCAACUAUGACACGCAAAACGCGUGCUCCGUUGAAUGGAGUUUAUCAAG [C93U U151A] | ≤ -4.2
GGAUCUUCUCGAUCUAACAAAAAAGACAAAUCUGCCACAAAGCUUGAGAGCAUCUUCGGAUGCAGAGGCGGCAGCCUUCGGUGGCGCGAUAGUGCCAACGUUCUCAACUAUGACACGCAAAACGCGUGCUCCGUUGAAUGGAGUUUAUCAUA [C93U G152A] | -3.11
GGAUCUUCUCGAUCUAACAAAAAAGACAAAUCUGCCACAAAGCUUGAGAGCAUCUUCGGAUGCAGAGGCGGCAGCCUUCGGUGGCGCGAUAGUGCCAACGUUCUCAACUAUGACACGCAAAACGCGUGCUCCGUUGAAUGGAGUUUAUCAUU [C93U G152U] | -3.49
GGAUCUUCUCGAUCUAACAAAAAAGACAAAUCUGCCACAAAGCUUGAGAGCAUCUUCGGAUGCAGAGGCGGCAGCCUUCGGUGGCGCGAUAGCACCAACGAUCUCAACUAUGACACGCAUAACGCGUGCUCCGUUGAAUGGAGUUUAUGAUG [G94A U101A A120U C149G] | ≤ -4.2
GGAUCUUCUCGAUCUAACAAAAAAGACAAAUCUGCCACAAAGCUUGAGAGCAUCUUCGGAUGCAGAGGCGGCAGCCUUCGGUGGCGCGAUAGCCCCUACGUUCUCAACUAGGACUCGCAAAACGCGUGCUCCGUUGAAUGGAGUUUAUGAUG [G94C A97U U111G A115U C149G] | ≤ -4.2
GGAUCUUCUCGAUCUAACAAAAAAGACAAAUCUGCCACAAAGCUUGAGAGCAUCUUCGGAUGCAGAGGCGGCAGCCUUCGGUGGCGCGAUAGCACCAACGGUCUCAACGUUGACACGCAAAACGCGUGCUCCGUUGAAUGGAGUUUAUCAUG [G94A U101G U109G A110U] | ≤ -4.2
GGAUCUUCUCGAUCUAACAAAAAAGACAAAUCUGCCACAAAGCUUGAGAGCAUCUUCGGAUGCAGAGGCGGCAGCCUUCGGUGGCGCGAUAGCACCAACGUUCUCAACUAUGACUCGCAAAACGCGUGCUCCGUUGAAUGGAGUUUAUCAUG [G94A A115U] | -1.76
GGAUCUUCUCGAUCUAACAAAAAAGACAAAUCUGCCACAAAGCUUGAGAGCAUCUUCGGAUGCAGAGGCGGCAGCCUUCGGUGGCGCGAUAGCACUAACGUUCUCAACUAUAACACGCAAAACGCCUGCUCCGUUGAAUCGAGCUUAUCAUG [G94A C96U G112A G126C G140C U144C] | ≤ -4.2
GGAUCUUCUCGAUCUAACAAAAAAGACAAAUCUGCCACAAAGCUUGAGAGCAUCUUCGGAUGCAGAGGCGGCAGCCUUCGGUGGCGCGAUAGCACCAACGUUCUCAACUAUGUCACGCAUAACGCGUGCUCCGUUGAAUGGAGUUUAUCAUG [G94A A113U A120U] | -1.56
GGAUCUUCUCGAUCUAACAAAAAAGACAAAUCUGCCACAAAGCUUGAGAGCAUCUUCGGAUGCAGAGGCGGCAGCCUUCGGUGGCGCGAUAGCCCCAACGUUCUCAACUAUGACACGCAAAACGCGUGCUCCGUUGAAUGGAGUUUAUCAUG [G94C] | -0.474
GGAUCUUCUCGAUCUAACAAAAAAGACAAAUCUGCCACAAAGCUUGAGAGCAUCUUCGGAUGCAGAGGCGGCAGCCUUCGGUGGCGCGAUAGCACCAACGUUCUCAACUAUGACACGCAAAACGCGUGCUCCGUUGAAUGGAGUUUAUCAUG [G94A] | -0.622
GGAUCUUCUCGAUCUAACAAAAAAGACAAAUCUGCCACAAAGCUUGAGAGCAUCUUCGGAUGCAGAGGCGGCAGCCUUCGGUGGCGCGAUAGCCCCAGCAUUCUCAACUAUGACACGCAAAACGCGUGCUCCGUUGAAUGCAGUUUAUCAUG [G94C A98G G100A G141C] | ≤ -4.2
GGAUCUUCUCGAUCUAACAAAAAAGACAAAUCUGCCACAAAGCUUGAGAGCAUCUUCGGAUGCAGAGGCGGCAGCCUUCGGUGGCGCGAUAGUGCCAACGUUCUCAACUAUGACACGCAAAACGCGUUCUCCGUUGAAUGGAGUUUAUCAUG [C93U G128U] | -3.6
GGAUCUUCUCGAUCUAACAAAAAAGACAAAUCUGCCACAAAGCUUGAGAGCAUCUUCGGAUGCAGAGGCGGCAGCCUUCGGUGGCGCGAUAGCACCAACGUUUUCAACUAUGACCCGCAAAACGCGUGCUCCGUUGAAUGGAGUUUACCAUG [G94A C103U A115C U148C] | ≤ -4.2
GGAUCUUCUCGAUCUAACAAAAAAGACAAAUCUGCCACAAAGCUUGAGAGCAUCUUCGGAUGCAGAGGCGGCAGCCUUCGGUGGCGCGAUAGUGCCAACGUUCUCAACUAUGAUACGCAAAACGCGUGCUCCGUUGAAUGGAGUUUAUCAUG [C93U C114U] | -2.54
GGAUCUUCUCGAUCUAACAAAAAAGACAAAUCUGCCACAAAGCUUGAGAGCAUCUUCGGAUGCAGAGGCGGCAGCCUUCGGUGGCGCGAUAGCACCAACGUUCUCCACUAUGACACGCAAAACGCGUGCUCCGUUAAAUGGAGUUUAUCAUG [G94A A106C G136A] | -0.404

Variant | polymerase ribozyme fitness (log ratio)
GGAUCUUCUCGAUCUAACAAAAAAGACAAAUCUGCCACAAAGCUUGAGAGCAUCUUCGGAUGCAGAGGCGGCAGCCUUCGGUGGCGCGAUAGCCCCUACGUUCUCAACUAUGACACGCAAAACGCGUGCUCCGUUUAAUGGAGUUUAUCAUG [G94C A97U G136U] | -3.38
GGAUCUUCUCGAUCUAACAAAAAAGACAAAUCUGCCACAAAGCUUGAGAGCAUCUUCGGAUGCAGAGGCGGCAGCCUUCGGUGGCGCGAUAGUGCCAACGUUCUCAACUAUGACACGCAAAACGCGAGCUACGUUGAAUGGAGUUUAUCAUG [C93U U127A C131A] | ≤ -4.2
GGAUCUUCUCGAUCUAACAAAAAAGACAAAUCUGCCACAAAGCUUGAGAGCAUCUUCGGAUGCAGAGGCGGCAGCCUUCGGUGGCGCGAUAGUGCCAACGUUCGCAACUAUGACACGCAAAACGCGUGCUCCAUUGAAUGGAGUUUAUCAUG [C93U U104G G133A] | ≤ -4.2
GGAUCUUCUCGAUCUAACAAAAAAGACAAAUCUGCCACAAAGCUUGAGAGCAUCUUCGGAUGCAGAGGCGGCAGCCUUCGGUGGCGCGAUAGCCCCAUCGUUCUCAACUAUGACACGCAAAACGGGUGCUCCGUUGAAUGGCGUUUAACAUG [G94C A98U C125G A142C U148A] | ≤ -4.2
GGAUCUUCUCGAUCUAACAAAAAAGACAAAUCUGCCACAAAGCUUGAGAGCAUCUUCGGAUGCAGAGGCGGCAGCCUUCGGUGGCGCGAUAGCACCAACGUUCUCAACUAUGACACGCAAAACGCGUGCUCCGUUGAAUGGAGUUUAUCAGG [G94A U151G] | ≤ -4.2
GGAUCUUCUCGAUCUAACAAAAAAGACAAAUCUGCCACAAAGCUUGAGAGCAUCUUCGGAUGCAGAGGCGGCAGCCUUCGGUGGCGCGAUAGUGCCAACGUUCUCAACUAUGACACGCAAAACGUGUGCUCCGUUGAAUGGAGUUUAUCAUG [C93U C125U] | -1.43
GGAUCUUCUCGAUCUAACAAAAAAGACAAAUCUGCCACAAAGCUUGAGAGCAUCUUCGGAUGCAGAGGCGGCAGCCUUCGGUGGCGCGAUAGCACCAACGUUCUCAUCUAUGAUACGCAAAACGCGUGCUCCGUUGAAUGGAGUUUAUCAUG [G94A A107U C114U] | ≤ -4.2
GGAUCUUCUCGAUCUAACAAAAAAGACAAAUCUGCCACAAAGCUUGAGAGCAUCUUCGGAUGCAGAGGCGGCAGCCUUCGGUGGCGCGAUAGUGCCAACGUUCUCAACUAUGACACGCAAAACUCGUGCUCCGUUGAAAGGAGUUUAUCAUG [C93U G124U U139A] | ≤ -4.2
GGAUCUUCUCGAUCUAACAAAAAAGACAAAUCUGCCACAAAGCUUGAGAGCAUCUUCGGAUGCAGAGGCGGCAGCCUUCGGUGGCGCGAUAGUGCCAACGUUCUCAACUAUGACACGCAAAACGCGUGCUCCGUUGAAAGGAGUUUACCAUG [C93U U139A U148C] | ≤ -4.2
GGAUCUUCUCGAUCUAACAAAAAAGACAAAUCUGCCACAAAGCUUGAGAGCAUCUUCGGAUGCAGAGGCGGCAGCCUUCGGUGGCGCGAUAGCAGCAACGUUCUCAACUAUGACACGCAAAACGCGUGCUCCAGUGUAUGGAGUUUAUCAUG [G94A C95G G133A U134G A137U] | -4.11
GGAUCUUCUCGAUCUAACAAAAAAGACAAAUCUGCCACAAAGCUUGAGAGCAUCUUCGGAUGCAGAGGCGGCAGCCUUCGGUGGCGCGAUAGUGCCAACGUUCUCAACUAUGACACGCAAAACGCGUGCUCCGUUGAAUGGAGUUGAUCAUG [C93U U146G] | -1.47
GGAUCUUCUCGAUCUAACAAAAAAGACAAAUCUGCCACAAAGCUUGAGAGCAUCUUCGGAUGCAGAGGCGGCAGCCUUCGGUGGCGCGAUAGUGCCAACGUUCUCAACUAUGACACGCAAAAUGCGCGCUCCGUCGAAUGGAGUUUAUCAUG [C93U C123U U127C U135C] | ≤ -4.2
GGAUCUUCUCGAUCUAACAAAAAAGACAAAUCUGCCACAAAGCUUGAGAGCAUCUUCGGAUGCAGAGGCGGCAGCCUUCGGUGGCGCGAUAGUGCCAACGUUCUAAACUAUGAAACGCAAAACGCGUGCUCCGUUGCAUGGAGUUUAUCAUG [C93U C105A C114A A137C] | ≤ -4.2
GGAUCUUCUCGAUCUAACAAAAAAGACAAAUCUGCCACAAAGCUUGAGAGCAUCUUCGGAUGCAGAGGCGGCAGCCUUCGGUGGCGCGAUAGCACCAACGCUCUCAACUAUGACACGCAAAACGCGUGCUCCGUUGAAUGGAGUUUAUCAUG [G94A U101C] | -0.823
GGAUCUUCUCGAUCUAACAAAAAAGACAAAUCUGCCACAAAGCUUGAGAGCAUCUUCGGAUGCAGAGGCGGCAGCCUUCGGUGGCGCGAUAGUGCCAAUGUUCUCAACUAUGAGACGCAAAACGCGUGCUCCGUUGAAUGGAGUUUAUCAUG [C93U C99U C114G] | -3.73
GGAUCUUCUCGAUCUAACAAAAAAGACAAAUCUGCCACAAAGCUUGAGAGCAUCUUCGGAUGCAGAGGCGGCAGCCUUCGGUGGCGCGAUAGCACCGACGUUCUCAACUAUGACACGCAAAACGCGUGCUCCGUUGAAUGGAGUUUAUCAUG [G94A A97G] | -2.19
GGAUCUUCUCGAUCUAACAAAAAAGACAAAUCUGCCACAAAGCUUGAGAGCAUCUUCGGAUGCAGAGGCGGCAGCCUUCGGUGGCGCGAUAGCACCAACGUUCUCAACUAUGACACGCAAAACGCGUGCUCCGUUCAAUGGAGUUUAUCAUG [G94A G136C] | -3.98
GGAUCUUCUCGAUCUAACAAAAAAGACAAAUCUGCCACAAAGCUUGAGAGCAUCUUCGGAUGCAGAGGCGGCAGCCUUCGGUGGCGCGAUAGCACCAACGUUCUCAACUAUGACACUCCAAACGCGUGCUACGUUGAAUGGAGUUUUUCAUG [G94A G117U A119C C131A A147U] | ≤ -4.2
GGAUCUUCUCGAUCUAACAAAAAAGACAAAUCUGCCACAAAGCUUGAGAGCAUCUUCGGAUGCAGAGGCGGCAGCCUUCGGUGGCGCGAUAGUGCCAACGUUCUCAACUAUGACACGCAAAAGGCGUGCGCCGUUGAAUGGAGUUUAUCAUG [C93U C123G U130G] | ≤ -4.2
